In the supplement of paper PMC3334620:
Over roughly 33,000 sequences, “E-score (-0.5 to 0.5)” has its median near -0.021; the highest 2% begin near 0.32. This is one part of the list.

What follows are sequences tested against T1, Zap1 (UniProt P47043) (assay: PBM E-score (8-mer binding enrichment) (E-score (-0.5 to 0.5)); higher = stronger / more preferred TF binding; most listed sequences are background and not binding sites). Conditions: protein concentration: 200 nM; construct: GST-full length.
T1 sequence: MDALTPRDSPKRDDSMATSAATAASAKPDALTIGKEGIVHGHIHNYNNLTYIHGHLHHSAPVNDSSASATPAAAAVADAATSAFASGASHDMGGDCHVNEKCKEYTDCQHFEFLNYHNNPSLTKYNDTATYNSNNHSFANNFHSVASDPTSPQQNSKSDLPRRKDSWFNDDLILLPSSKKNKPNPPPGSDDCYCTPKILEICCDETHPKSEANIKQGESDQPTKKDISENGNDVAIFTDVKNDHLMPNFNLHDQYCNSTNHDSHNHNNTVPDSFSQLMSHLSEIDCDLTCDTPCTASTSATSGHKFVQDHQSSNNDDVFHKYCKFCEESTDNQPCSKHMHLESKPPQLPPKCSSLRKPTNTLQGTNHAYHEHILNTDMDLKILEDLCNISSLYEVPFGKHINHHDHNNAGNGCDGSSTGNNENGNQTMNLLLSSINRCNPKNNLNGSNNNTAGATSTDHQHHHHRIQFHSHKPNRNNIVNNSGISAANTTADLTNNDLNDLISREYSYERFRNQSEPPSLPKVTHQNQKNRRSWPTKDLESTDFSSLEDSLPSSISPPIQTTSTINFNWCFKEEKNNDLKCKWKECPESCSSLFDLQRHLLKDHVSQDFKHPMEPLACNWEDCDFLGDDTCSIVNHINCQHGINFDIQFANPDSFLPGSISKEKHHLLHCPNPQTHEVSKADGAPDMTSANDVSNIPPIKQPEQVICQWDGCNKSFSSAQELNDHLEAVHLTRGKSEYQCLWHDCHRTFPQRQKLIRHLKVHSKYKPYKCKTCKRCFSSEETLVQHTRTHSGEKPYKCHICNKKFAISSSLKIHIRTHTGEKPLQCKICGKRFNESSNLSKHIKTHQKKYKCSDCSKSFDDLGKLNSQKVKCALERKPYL
Procedure, shortened: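 Masliner-normalised scans of fluorescent anti-GST signal were the basis for scoring. That signal came from GST-tagged yeast transcription factors applied at about 100-200 nM to double-stranded universal all-10-mer Agilent arrays on fresh or once-stripped slides. Each ungapped eight-base word, pooled with its reverse complement, received an E-score from the Universal PBM Analysis Suite.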

Row | Sequence | PBM E-score
1 | CACAACCG | 0.289
2 | ATAAGATC | -0.0675
3 | ATGTGGAC | -0.144
4 | CTACTTGA | -0.122
5 | GCTCTAGA | -0.277
6 | ATGGACGA | 0.07
7 | TATTCCAA | 0.0766
8 | GTGGCGTA | -0.0831
9 | TCGACCAA | 0.0837
10 | GCGTAGAC | -0.145
11 | CTGTTACC | 0.248
12 | ACCGGCGC | -0.0444
13 | ATGTTGTG | 0.179
14 | CATTCTTA | -0.0384
15 | AGGAACTG | -0.148
16 | ACCGCCAA | 0.0445
17 | CTCTGATC | -0.154
18 | ATCCAAGA | 0.0735
19 | CATGCTGG | -0.0654
20 | ACTTCGAC | -0.0812
21 | CGCCAAAA | 0.0978
22 | ACGACAGA | -0.172
23 | GACGAGCA | -0.253
24 | ACTCCGCG | -0.106

Row | Sequence | PBM E-score
25 | GTGGAATA | -0.0633
26 | TGAGATAA | -0.012
27 | CCGTGCTC | -0.121
28 | CCTCGTCC | -0.165
29 | CCTCTGAA | -0.072
30 | GGTATGAC | 0.152
31 | ATATGTTC | -0.0732
32 | TTACAAAA | 0.181
33 | ATAATCAC | 0.109
34 | GGCCCAGA | -0.374
35 | AAGCCGAT | -0.128
36 | AGAAGATC | -0.214
37 | CCCCGGGA | 0.116
38 | ACTACCCA | 0.291
39 | CCTGCGGC | -0.0665
40 | AAACCACC | 0.193
41 | CCGAGCTC | -0.0305
42 | AGCAACAT | -0.0906
43 | CCAGTGCA | -0.0265
44 | AGGTCATA | 0.347
45 | GGACTAAC | -0.0322
46 | CAGTCGAG | -0.187
47 | ACATAAAT | 0.0708
48 | GACCTGGA | 0.0391

Row | Sequence | PBM E-score
49 | AACCTCCT | 0.158
50 | AAAGAATG | 0.183
51 | GCCCCACC | 0.283
52 | CAATCCGA | 0.07
53 | AGTGGCCC | 0.108
54 | AGCCTAAC | 0.0792
55 | CCTCAGGC | -0.0942
56 | CGATAAAA | 0.123
57 | ACCCTTAC | 0.29
58 | CTTTCAAC | 0.0851
59 | AACCTTGC | 0.305
60 | ACATATGA | 0.0879
61 | GTCGTCCA | -0.123
62 | AGGGTTAG | 0.431
63 | CGGACTCC | -0.104
64 | AAGACCGG | 0.102
65 | CGATATAG | 0.0443
66 | CACGTCTG | -0.121
67 | CAGCTAGG | -0.294
68 | ACGTCACA | -0.0421
69 | CGGTGAAC | -0.0916
70 | GGGCGACC | -0.0599
71 | GCGGAACA | -0.295
72 | AAATACAC | 0.0463

Row | Sequence | PBM E-score
73 | CAACTGCA | -0.0489
74 | CACGCTCG | -0.113
75 | CTTTGTTA | 0.229
76 | AGCGCCCC | -0.221
77 | ACCCGTCA | 0.186
78 | AGTGCAAA | -0.0239
79 | CGGGACCC | 0.182
80 | ATTATGAC | 0.0175
81 | CTTGAGGA | -0.0238
82 | AATGGGAC | 0.0748
83 | CACGATCG | -0.0406
84 | CAGGTGCA | -0.0246
85 | GTGAGCAC | -0.142
86 | CAACATAA | 0.113
87 | CAAATCGG | -0.0485
88 | AGGGAATA | -0.054
89 | TATATATA | 0.37
90 | ATGCATGG | 0.0833
91 | AGACCTCC | -0.175
92 | ACGTACGC | -0.165
93 | ATCTGGTA | 0.189
94 | GTAAGTTA | -0.0267
